The source of these data is patent publication US20090196917A1, “Liposomal Formulations of Hydrophobic Lactone Drugs in the Presence of Metal Ions” (University of Kentucky Research Foundation, priority 2008, published 2009).

The test has as its system Non-small cell lung cancer (H460) tumor. Description: Efficacy of DB-67 in non-small cell lung cancer (H460) xenografts in mice. To be noted: protracted intravenous dosing, 2.5-7.5 mg/kg/day, 5-15 days per 21 day cycle.

Regarding `CC[C@@]1(O)C(=O)OCc2c1cc1n(c2=O)Cc2c-1nc1ccc(O)cc1c2[Si](C)(C)C(C)(C)C` [DB-67, silatecan 7-t-butyldimethylsilyl-10-hydroxycamptothecin], the “treatment of non-small cell lung cancer (H460) in mice (tumor volume, survival)” value was “effective”.
